Data from publication PMC8382200.
These are yes or no findings as the source states them, for the method shown. In cells and extracts the contact can be indirect. Some entries that bind do so weakly or less than the wild type.

Chains of the proteins cited; added tags and fusions are not shown.
UniProt P11171: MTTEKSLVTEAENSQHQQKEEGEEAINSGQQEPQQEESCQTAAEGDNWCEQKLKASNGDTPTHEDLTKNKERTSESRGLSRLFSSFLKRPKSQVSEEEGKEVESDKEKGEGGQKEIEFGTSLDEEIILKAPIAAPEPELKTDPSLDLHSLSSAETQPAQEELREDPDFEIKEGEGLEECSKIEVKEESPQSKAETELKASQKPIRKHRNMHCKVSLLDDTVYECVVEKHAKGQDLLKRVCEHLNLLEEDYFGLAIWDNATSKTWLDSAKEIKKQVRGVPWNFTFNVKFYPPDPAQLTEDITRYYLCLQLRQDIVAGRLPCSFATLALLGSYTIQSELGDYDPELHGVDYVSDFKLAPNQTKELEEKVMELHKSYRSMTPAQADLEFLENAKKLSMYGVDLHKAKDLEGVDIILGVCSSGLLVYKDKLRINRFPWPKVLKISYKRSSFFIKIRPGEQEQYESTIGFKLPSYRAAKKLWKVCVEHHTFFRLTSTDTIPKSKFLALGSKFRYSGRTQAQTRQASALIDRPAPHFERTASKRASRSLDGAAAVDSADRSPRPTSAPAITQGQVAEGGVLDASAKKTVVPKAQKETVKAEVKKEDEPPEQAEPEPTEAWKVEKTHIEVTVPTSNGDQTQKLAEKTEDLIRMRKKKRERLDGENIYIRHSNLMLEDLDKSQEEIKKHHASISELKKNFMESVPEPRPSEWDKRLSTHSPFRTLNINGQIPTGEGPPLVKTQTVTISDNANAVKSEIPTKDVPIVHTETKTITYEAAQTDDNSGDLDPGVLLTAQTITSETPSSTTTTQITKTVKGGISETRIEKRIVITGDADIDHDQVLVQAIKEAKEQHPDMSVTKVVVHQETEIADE
UniProt P15311: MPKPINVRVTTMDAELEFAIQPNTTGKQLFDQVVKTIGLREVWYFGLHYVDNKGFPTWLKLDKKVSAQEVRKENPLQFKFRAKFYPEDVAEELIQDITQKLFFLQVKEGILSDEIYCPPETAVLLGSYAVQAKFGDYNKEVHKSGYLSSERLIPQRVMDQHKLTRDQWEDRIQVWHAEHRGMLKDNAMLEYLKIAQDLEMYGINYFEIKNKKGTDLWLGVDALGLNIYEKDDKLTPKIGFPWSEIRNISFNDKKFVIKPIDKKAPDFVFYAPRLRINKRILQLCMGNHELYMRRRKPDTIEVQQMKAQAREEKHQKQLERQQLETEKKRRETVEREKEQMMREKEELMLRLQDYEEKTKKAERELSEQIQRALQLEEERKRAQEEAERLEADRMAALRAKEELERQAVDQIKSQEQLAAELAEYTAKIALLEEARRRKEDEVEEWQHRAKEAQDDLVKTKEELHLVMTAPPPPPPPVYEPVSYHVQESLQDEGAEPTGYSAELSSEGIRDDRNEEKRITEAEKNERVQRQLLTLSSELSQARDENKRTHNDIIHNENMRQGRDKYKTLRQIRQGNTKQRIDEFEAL
UniProt P26038: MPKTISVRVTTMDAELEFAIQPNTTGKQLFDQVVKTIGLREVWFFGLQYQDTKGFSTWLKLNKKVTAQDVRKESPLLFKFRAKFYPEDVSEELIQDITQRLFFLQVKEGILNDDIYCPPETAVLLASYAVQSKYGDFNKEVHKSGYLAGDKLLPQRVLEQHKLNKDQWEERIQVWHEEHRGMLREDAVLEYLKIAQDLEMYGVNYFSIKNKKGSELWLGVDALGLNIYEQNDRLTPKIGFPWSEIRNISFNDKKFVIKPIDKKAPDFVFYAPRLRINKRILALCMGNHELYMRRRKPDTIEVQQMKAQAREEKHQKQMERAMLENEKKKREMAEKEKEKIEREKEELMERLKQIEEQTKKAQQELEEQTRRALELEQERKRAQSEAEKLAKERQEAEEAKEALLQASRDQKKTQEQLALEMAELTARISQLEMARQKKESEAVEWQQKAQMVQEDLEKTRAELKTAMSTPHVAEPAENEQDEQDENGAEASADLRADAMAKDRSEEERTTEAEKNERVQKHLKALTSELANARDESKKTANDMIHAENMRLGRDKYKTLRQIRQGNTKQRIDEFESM
UniProt P35241: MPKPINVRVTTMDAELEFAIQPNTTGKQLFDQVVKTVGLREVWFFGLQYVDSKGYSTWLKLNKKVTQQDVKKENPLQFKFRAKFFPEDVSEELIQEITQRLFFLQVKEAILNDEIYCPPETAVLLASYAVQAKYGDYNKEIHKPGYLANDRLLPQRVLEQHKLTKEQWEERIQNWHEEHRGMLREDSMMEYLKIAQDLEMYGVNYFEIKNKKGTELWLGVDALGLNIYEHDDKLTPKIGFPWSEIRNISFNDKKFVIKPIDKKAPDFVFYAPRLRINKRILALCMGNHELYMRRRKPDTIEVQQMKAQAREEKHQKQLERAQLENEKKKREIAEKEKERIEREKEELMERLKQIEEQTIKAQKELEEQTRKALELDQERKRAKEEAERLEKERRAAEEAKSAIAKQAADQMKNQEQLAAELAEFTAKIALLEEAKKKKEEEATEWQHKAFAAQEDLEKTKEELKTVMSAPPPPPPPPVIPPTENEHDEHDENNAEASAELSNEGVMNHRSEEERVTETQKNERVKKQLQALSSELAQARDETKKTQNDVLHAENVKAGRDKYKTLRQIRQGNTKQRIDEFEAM
UniProt P35240: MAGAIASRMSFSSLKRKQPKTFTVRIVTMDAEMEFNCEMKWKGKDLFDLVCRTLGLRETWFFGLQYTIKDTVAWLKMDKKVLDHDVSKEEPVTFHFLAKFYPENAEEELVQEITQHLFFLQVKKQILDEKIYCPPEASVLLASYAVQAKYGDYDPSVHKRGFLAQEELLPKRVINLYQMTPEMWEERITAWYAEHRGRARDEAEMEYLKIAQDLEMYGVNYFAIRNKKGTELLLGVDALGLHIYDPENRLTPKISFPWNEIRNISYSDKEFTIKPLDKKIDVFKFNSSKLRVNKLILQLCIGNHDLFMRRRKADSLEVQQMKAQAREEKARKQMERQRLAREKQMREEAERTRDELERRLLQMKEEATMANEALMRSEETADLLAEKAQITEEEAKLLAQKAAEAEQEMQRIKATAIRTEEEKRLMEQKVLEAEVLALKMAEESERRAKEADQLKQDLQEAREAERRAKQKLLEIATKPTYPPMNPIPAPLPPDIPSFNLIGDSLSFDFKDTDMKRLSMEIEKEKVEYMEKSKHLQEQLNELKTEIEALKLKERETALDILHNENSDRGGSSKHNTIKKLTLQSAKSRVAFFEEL

Assays:
Assay in all cases: co-IP; Flag-tagged proteins transfected in HEK293T; lysis in PBS-E LB (1% TX100); Flag (M2) agarose IP; endogenous proteins by Western blot; in some panels after siRNA knock-downs or in dense or sparse cells
[1] = molecular target: Flag-erythrocyte membrane protein band 4.1 (EPB41) (UniProt P11171)
[2] = molecular target: Flag-Ezrin (UniProt P15311)
[3] = molecular target: Flag-Moesin (UniProt P26038)
[4] = molecular target: Flag-Radixin (UniProt P35241)
[5] = molecular target: Flag-Merlin isoform 1 (UniProt P35240)

binding [1]: no binding
binding [2]: no binding
binding [3]: no binding
binding [4]: no binding
binding [5]: binds
B1: TAT-SF1 (protein, UniProt O43719 1-755)
chain: MSGTNLDGNDEFDEQLRMQELYGDGKDGDTQTDAGGEPDSLGQQPTDTPYEWDLDKKAWFPKITEDFIATYQANYGFSNDGASSSTANVEDVHARTAEEPPQEKAPEPTDARKKGEKRKAESGWFHVEEDRNTNVYVSGLPPDITVDEFIQLMSKFGIIMRDPQTEEFKVKLYKDNQGNLKGDGLCCYLKRESVELALKLLDEDEIRGYKLHVEVAKFQLKGEYDASKKKKKCKDYKKKLSMQQKQLDWRPERRAGPSRMRHERVVIIKNMFHPMDFEDDPLVLNEIREDLRVECSKFGQIRKLLLFDRHPDGVASVSFRDPEEADYCIQTLDGRWFGGRQITAQAWDGTTDYQVEETSREREERLRGWEAFLNAPEANRGLRRSDSVSASERAGPSRARHFSEHPSTSKMNAQETATGMAFEEPIDEKKFEKTEDGGEFEEGASENNAKESSPEKEAEEGCPEKESEEGCPKRGFEGSCSQKESEEGNPVRGSEEDSPKKESKKKTLKNDCEENGLAKESEDDLNKESEEEVGPTKESEEDDSEKESDEDCSEKQSEDGSEREFEENGLEKDLDEEGSEKELHENVLDKELEENDSENSEFEDDGSEKVLDEEGSEREFDEDSDEKEEEEDTYEKVFDDESDEKEDEEYADEKGLEAADKKAEEGDADEKLFEESDDKEDEDADGKEVEDADEKLFEDDDSNEKLFDEEEDSSEKLFDDSDERGTLGGFGSVEEGPLSTGSSFILSSDDDDDDI
